Measurements published in PubChem BioAssay AID624417 (National Center for Advancing Translational Sciences (NCATS), 2012).
Screen size: about 410,000 compounds; about 6,400 (1.6%) were called active. The inconclusive results got no clear call from the source; some entries with a clear call stand among them for comparison. The call rests on the fitted dose curve; in most records, active means well fitted inhibition curve with a large enough effect; inconclusive means small, poorly fitted or top-dose-only effect; inactive means no such curve, though single readings can be large or run the other way. No potency is given beside an inconclusive call; the fits are too rough.

target: Glucagon-like peptide 1 receptor (Homo sapiens) (UniProt P43220); assay: qHTS of GLP-1 Receptor Inverse Agonists (Inhibition Mode); details: HEK293 GLP-1R CRE-luciferase, luminescence, 24 h, GLP-1R form is constitutively active; activity change, negative = inhibition: at 38.3 µM (top of the series) unless noted; further: nearly all actives have a fitted effect of over 55% in size
In short: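 HEK293 cells stably co-expressing a cAMP-responsive luciferase reporter and constitutively active GLP-1R were seeded, incubated 12 h, then exposed to compounds for 24 h at 37 C. Luminescence was read 12 min after detection reagent; inverse agonists lower signal.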
On the % scale 0 is the no-effect control and ±100 the full control effect; potency means the concentration at half of the fitted maximal effect; tags describe the fitted curve by direction and shape.

Chain of UniProt P43220 (P43220 whole entry, looked up): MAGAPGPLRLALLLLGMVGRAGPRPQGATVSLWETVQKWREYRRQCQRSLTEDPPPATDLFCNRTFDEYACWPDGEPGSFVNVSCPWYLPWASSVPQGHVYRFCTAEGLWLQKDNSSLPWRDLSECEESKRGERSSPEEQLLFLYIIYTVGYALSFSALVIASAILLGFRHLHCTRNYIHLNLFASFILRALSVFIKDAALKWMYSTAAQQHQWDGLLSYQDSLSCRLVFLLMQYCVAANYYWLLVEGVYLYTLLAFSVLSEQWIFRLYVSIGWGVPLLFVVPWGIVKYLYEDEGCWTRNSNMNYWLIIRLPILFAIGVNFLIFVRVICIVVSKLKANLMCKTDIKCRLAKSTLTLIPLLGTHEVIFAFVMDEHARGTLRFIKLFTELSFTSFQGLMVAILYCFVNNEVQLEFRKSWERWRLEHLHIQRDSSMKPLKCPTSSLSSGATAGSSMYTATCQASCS

Q: How did the Potency turn out when `CC(=O)c1c(C)[nH]c(C(=O)N2CCCCCC2)c1C` was run?
A: Its Potency is inconclusive [inhibitor, partial curve, poor fit].

Q: `CCOC(=O)c1cc(NC(=O)CNCC(c2ccccc2)N(C)C)cc(C(=O)OCC)c1` (centres undefined) was tested. Which Potency did it give?
A: The Potency was inconclusive [inhibitor, single point].

Q: For `COc1cc(/C=C2\SC(=Nc3ccc(O)cc3)NC2=O)cc(OC)c1O`, which “activity change, negative = inhibition” value is on record?
A: Its value is inactive: 58.8%.

Q: How did the Potency turn out when `Cc1noc(C)c1S(=O)(=O)NC1CCCc2ccccc21` (centres undefined) was run?
A: Its Potency is inconclusive [inhibitor, single point].

Q: Which “activity change, negative = inhibition” value does the source give for `COc1ccc(C)cc1NC(=O)Nc1ccc(C(=O)N2CCCC2)cc1` here?
A: Its value is inactive: 18.2%.

Q: With `Cc1cc(OCC(=O)N(Cc2ccc(N(C)C)cc2)Cc2ccco2)cc(C)c1Cl` as the compound, how does the Potency read?
A: The Potency was inconclusive [inhibitor, partial curve, poor fit].

Q: How did the Potency turn out when `CCOC(=O)c1ccc(OC(=O)c2cn(-c3ccc(C)cc3)c(=O)c3ccccc23)cc1` was run?
A: Its Potency is inconclusive [inhibitor, partial curve, poor fit].

Q: For `Cn1cc(/C=N/NC(=O)c2ccc(C#N)cc2F)c2ccccc21`, which Potency is on record?
A: Its Potency is inconclusive [inhibitor, full curve, poor fit].

Q: Which Potency does the source give for `O=C(Nc1ccccc1-c1nnn(CC(=O)N2CCCc3ccccc32)n1)c1ccco1` here?
A: Its Potency is inconclusive [inhibitor, single point].

Q: With `COc1cc(-n2nc(C)c3c2OC(N)=C(C#N)C3c2ccccc2)c(Cl)c(Br)c1O` (centres undefined) as the compound, how does the Potency read?
A: The Potency was inconclusive [inhibitor, partial curve, poor fit].

Q: For `CN1CCN(C(=O)C2CC(c3ccc(F)cc3)=NO2)CC1` (centres undefined), which “activity change, negative = inhibition” value is on record?
A: Its value is inactive: -15%.

Q: Which “activity change, negative = inhibition” value does the source give for `COC(=O)c1ccc(S(=O)(=O)NCc2cccc(OC)c2)n1C` here?
A: The value was inactive: 2.82%.

Q: Which Potency does the source give for `COC(=O)[C@@]12C[C@@H](CC(=O)NCc3ccc(C)o3)C(=O)N(Cc3ccc4c(c3)OCO4)C1=CCC(C)(C)C2` here?
A: Its Potency is inconclusive [inhibitor, single point].

Q: How did the Potency turn out when `O=C1CCCCCN1CSc1nc2ccccc2s1` was run?
A: Its Potency is inconclusive [inhibitor, partial curve, poor fit].

Q: With `COc1ccc(NC(=O)c2ccc3ccccc3c2OC)cc1` as the compound, how does the Potency read?
A: The Potency was inconclusive [inhibitor, single point].

Q: `COC(=O)c1c(NC(=O)C(C)(C)C)sc2c1CCN(Cc1ccccc1)C2` was tested. Which Potency did it give?
A: Its Potency is inconclusive [inhibitor, single point].

Q: For `COc1ccc(C(=O)N/N=C\c2ccoc2)cc1`, which “activity change, negative = inhibition” value is on record?
A: Its value is inactive: 22.2%.

Q: For `CCN1CCCC1CNS(=O)(=O)c1ccc(C(=O)Nc2ccccc2)cc1` (centres undefined), which Potency is on record?
A: Its Potency is inconclusive [inhibitor, single point].

Q: With `O=C(OCC(=O)N1CCCc2ccccc21)c1cccc(C(F)(F)F)c1` as the compound, how does the Potency read?
A: The Potency was inconclusive [inhibitor, partial curve, poor fit].

Q: With `COc1ccc(CNC(=O)COC(=O)c2c(-c3c(F)cccc3Cl)noc2C)cc1OC` as the compound, how does the “activity change, negative = inhibition” value read?
A: The value was inactive: 0%.

Q: How did the “activity change, negative = inhibition” value turn out when `COc1ccccc1-c1nc2c(c(SCc3cc(C)ccc3C)n1)Cc1c(CO)cnc(C)c1O2` was run?
A: Its value is inactive: 52%.

Q: For `Cc1ccc(C)c(SCC(=O)Nc2cccc(S(=O)(=O)N3CCOCC3)c2)c1`, which Potency is on record?
A: Its Potency is inconclusive [inhibitor, partial curve, poor fit].

Q: How did the Potency turn out when `Cc1ccc(Cl)cc1NC(=S)NCc1cccn1C` was run?
A: The Potency was inconclusive [inhibitor, partial curve, poor fit].

Q: How did the “activity change, negative = inhibition” value turn out when `COc1ccc(-c2ccc(OC)c([C@H]3[C@@H]4C=CCC[C@@]4(C)C(=O)N3Cc3ccccc3)c2)cc1OC` was run?
A: Its value is inactive: -23.7%.

Q: `O=C(CSc1ccc(F)cc1)Nc1ccccc1N1CCOCC1` was tested. Which Potency did it give?
A: The Potency was inconclusive [inhibitor, single point].

Q: How did the Potency turn out when `Cc1c(C)n(CC(O)CN2CCCCCC2)c2ccccc12` (centres undefined) was run?
A: Its Potency is inconclusive [inhibitor, partial curve, poor fit].

Q: `Cc1ccc(S(=O)(=O)NNC(=O)Nc2cccc(F)c2)c(C)c1` was tested. Which Potency did it give?
A: Its Potency is inconclusive [inhibitor, full curve, poor fit].

Q: `C=CCn1c(=O)[nH]c2cc(C(=O)N3CC=C(c4ccccc4)CC3)ccc2c1=O` was tested. Which Potency did it give?
A: Its Potency is inconclusive [inhibitor, single point].

Q: Which Potency does the source give for `COc1ccc(Sc2ccc(/C=C3\C(=O)NN(c4ccccc4)C3=O)o2)cc1` here?
A: Its Potency is inconclusive [inhibitor, full curve, poor fit].

Q: How did the Potency turn out when `CCCCN(C)C(=O)Cn1c(=O)oc2cc(S(=O)(=O)N3CC(C)CC(C)C3)ccc21` (centres undefined) was run?
A: The Potency was inconclusive [inhibitor, partial curve, poor fit].

Q: With `O=C(Nc1ccc2nc3n(c(=O)c2c1)CCCC3)c1cccc(F)c1` as the compound, how does the “activity change, negative = inhibition” value read?
A: The value was inactive: 55.3%.

Q: With `Cc1ccc(NC(=O)c2cc3ccccc3o2)cc1` as the compound, how does the Potency read?
A: The Potency was inconclusive [inhibitor, single point].

Q: How did the Potency turn out when `Cc1[nH]c(C)c(S(=O)(=O)Nc2ccc(OC(F)(F)F)cc2)c1C(=O)N1CCCCC1` was run?
A: Its Potency is inconclusive [inhibitor, single point].

Q: `Cc1cccc(C=CC(=O)c2ccccc2)c1` was tested. Which Potency did it give?
A: Its Potency is inconclusive [inhibitor, partial curve].

Q: How did the Potency turn out when `CSc1ccccc1NC(=O)Nc1ccccc1Cl` was run?
A: Its Potency is inconclusive [inhibitor, single point].

Q: With `O=C(c1cccc(Cl)c1)N1CCC2CC1c1cc(-c3ccccc3)ccc12` (centres undefined) as the compound, how does the Potency read?
A: The Potency was inconclusive [inhibitor, single point].

Q: `O=C(CCl)Nc1cc(SCC(O)CO)cc([N+](=O)[O-])c1` (centres undefined) was tested. Which Potency did it give?
A: The Potency was inconclusive [inhibitor, full curve, poor fit].

Q: Which Potency does the source give for `Cc1ccc2nc3sc(C(=O)N4CCOCC4)c(N)c3cc2c1` here?
A: Its Potency is inconclusive [inhibitor, full curve, poor fit].

Q: `NS(=O)(=O)c1cccc(NC(=O)c2cccc(S(=O)(=O)N3CCCCCC3)c2)c1` was tested. Which Potency did it give?
A: The Potency was inconclusive [inhibitor, partial curve, poor fit].

Q: With `COC(=O)c1ccc(/C=N/NC(=S)NCCN2CCOCC2)cc1` as the compound, how does the “activity change, negative = inhibition” value read?
A: Its value is inactive: 17.1%.

Q: `CC(C)C[C@H](NC(=O)c1nc[nH]c1C(=O)N1CCN(c2ccccc2)CC1)C(=O)OC(C)(C)C` was tested. Which Potency did it give?
A: Its Potency is inconclusive [inhibitor, single point].

Q: `COc1cc(/C=N/NC(=Nc2ccc(C)cc2)c2nc3ccccc3s2)ccc1O` was tested. Which Potency did it give?
A: Its Potency is inconclusive [inhibitor, partial curve, poor fit].

Q: For `O=C(OCc1ccccc1)N1CCC2CC1c1cc(-c3ccc(F)cc3)ccc12` (centres undefined), which Potency is on record?
A: The Potency was inconclusive [inhibitor, single point].

Q: How did the Potency turn out when `O=C(COC(=O)c1cc(-c2cccc(Br)c2)nc2ccccc12)NCC1CCCO1` (centres undefined) was run?
A: The Potency was inconclusive [inhibitor, single point].

Q: `CCN(CC(=O)NCc1cccs1)C(=O)c1ccc(-c2cccc(C(F)(F)F)c2)o1` was tested. Which Potency did it give?
A: The Potency was inconclusive [inhibitor, partial curve, poor fit].

Q: How did the Potency turn out when `CCc1ccc(/C=N/NC(=S)NCCc2ccccc2)cc1` was run?
A: The Potency was inconclusive [inhibitor, single point].

Q: How did the Potency turn out when `CSc1ccccc1NC(=O)CN(Cc1ccc(Cl)cc1)S(C)(=O)=O` was run?
A: Its Potency is inconclusive [inhibitor, partial curve, poor fit].

Q: With `CCc1ccc(NC(=O)CN2C(=O)C3CCCN3c3ccc(S(=O)(=O)N(CC)CC)cc32)cc1` (centres undefined) as the compound, how does the “activity change, negative = inhibition” value read?
A: Its value is inactive: -6.32%.

Q: With `Cc1nn(Cc2ccc(Cl)cc2)c(C)c1NC(=O)c1cc(-c2ccco2)on1` as the compound, how does the Potency read?
A: The Potency was inconclusive [inhibitor, single point].

Q: How did the “activity change, negative = inhibition” value turn out when `N#Cc1c(NC(=O)CN2C(=O)c3ccccc3C2=O)oc(-c2ccccc2)c1-c1ccccc1` was run?
A: The value was inactive: 5.77%.

Q: For `CCOc1cccc2sc(=NC(=O)CCS(=O)(=O)c3ccc(F)cc3)n(C)c12`, which “activity change, negative = inhibition” value is on record?
A: The value was inactive: 5.03%.

Q: How did the “activity change, negative = inhibition” value turn out when `O=C(N=Nc1c(O)[nH]c2ccccc12)Nc1ccccc1` was run?
A: The value was inactive: -2.06%.

Q: How did the “activity change, negative = inhibition” value turn out when `CC(C)Nc1ncnc2c1ncn2[C@H]1CN(Cc2ccncc2)C[C@@H](CO)O1` was run?
A: The value was inactive: 29.6%.

Q: How did the Potency turn out when `O=C(NC1CCCCC1)c1ccc(-c2ccccc2[N+](=O)[O-])o1` was run?
A: The Potency was inconclusive [inhibitor, single point].

Q: How did the Potency turn out when `Cc1cc(C)c(S(=O)(=O)n2ccc(-c3ccc(OCCN(C)c4ccccn4)cc3)n2)c(C)c1` was run?
A: The Potency was inconclusive [inhibitor, full curve].

Q: For `Cc1cc2nccc(-c3ccncc3)n2n1`, which Potency is on record?
A: Its Potency is inconclusive [inhibitor, single point].

Q: How did the “activity change, negative = inhibition” value turn out when `CCNC(=S)N(Cc1ccco1)Cc1cc2cc(OCC)ccc2[nH]c1=O` was run?
A: The value was inactive: 3.18%.

Q: For `Cn1cc(C(=O)O)c(=O)c2cc(S(=O)(=O)N3CCOCC3)ccc21`, which Potency is on record?
A: The Potency was inconclusive [inhibitor, partial curve, poor fit].

Q: With `O=C(Nc1ccccc1)c1cc(C2CCCCN2S(=O)(=O)c2ccccc2)on1` (centres undefined) as the compound, how does the Potency read?
A: Its Potency is inconclusive [inhibitor, single point].

Q: With `Cc1cccc(C(=O)NC2CCN(S(=O)(=O)c3ccccc3F)CC2)c1` as the compound, how does the Potency read?
A: The Potency was inconclusive [inhibitor, partial curve, poor fit].

Q: How did the Potency turn out when `COc1ccc(NC(=O)c2cn(-c3ccccc3)nc2-c2ccncc2)cc1` was run?
A: The Potency was inconclusive [inhibitor, single point].

Q: `O=C(CCc1ccccc1)NCc1ccc2c(c1)CCN2C(=O)c1ccccc1` was tested. Which “activity change, negative = inhibition” value did it give?
A: The value was inactive: 2.5%.

Q: `Cc1ccc(S(=O)(=O)CC(=O)Nc2sc(C)c(C)c2C(N)=O)cc1` was tested. Which Potency did it give?
A: Its Potency is inconclusive [inhibitor, single point].

Q: How did the Potency turn out when `Cc1cc(C)c2c(CN3CCN(Cc4ccccc4)CC3)cc(=O)oc2c1` was run?
A: The Potency was inconclusive [inhibitor, single point].
